# Source: the supplement of paper PMC8728848
# The other results are listed elsewhere or left out.
# B1: Flo5 (Saccharomyces cerevisiae), P38894 (protein)
# chain: MGSSHHHHHHSSGLVPRGSHMSGATEACLPAGQRKSGMNINFYQYSLKDSSTYSNAAYMAYGYASKTKLGSVGGQTDISIDYNIPCVSSSGTFPCPQEDSYGNWGCKGMGACSNSQGIAYWSTDLFGFYTTPTNVTLEMTGYFLPPQTGSYTFSFATVDDSAILSVGGSIAFECCAQEQPPITSTNFTINGIKPWDGSLPDNITGTVYMYAGYYYPLKVVYSNAVSWGTLPISVELPDGTTVSDNFEGYVYSFDDDLSQSNCTIPDPSIH
# Legend:
# Assay in all cases: glycan array binding signal (z-score within array); higher = stronger binding
# Conditions in all cases: glycan notation: IUPAC condensed, linker removed
# [1] = target: Gal(a1-2)Gal
# Outline: (§1)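 Glycan array binding is given as a within-array Z-score, which can be read as non-binding when negative. The arrays, 3228 of them, came from the Consortium for Functional Glycomics database and were retained only where the protein sequence was available. Z-scores were averaged across arrays of the same protein sequence at different concentrations or buffers and across linkers.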
# [2] = target: Gal(a1-3)Gal
# Outline: as §1
# [3] = target: Gal(a1-3)Gal(b1-3)GlcNAc
# Outline: as §1
# [4] = target: Gal(a1-3)Gal(b1-4)Glc
# Outline: as §1
# [5] = target: Gal(a1-3)Gal(b1-4)GlcNAc
# Outline: as §1
# [6] = target: Gal(a1-3)Gal(b1-4)[Fuc(a1-3)]GlcNAc
# Outline: as §1
# [7] = target: Gal(a1-3)Gal(b1-4)[Fuc(a1-3)]GlcNAc(b1-2)Man(a1-3)[Gal(a1-3)Gal(b1-4)[Fuc(a1-3)]GlcNAc(b1-2)Man(a1-6)]Man(b1-4)GlcNAc(b1-4)GlcNAc
# Outline: as §1
# [8] = target: Gal(a1-3)GalNAc
# Outline: as §1
# [9] = target: Gal(a1-3)[Gal(a1-4)]Gal(b1-4)GlcNAc
# Outline: as §1
# [10] = target: Gal(a1-4)Gal(b1-4)Glc
# Outline: as §1
# [11] = target: Gal(a1-4)Gal(b1-4)GlcNAc
# Outline: as §1
# [12] = target: Gal(a1-4)Gal(b1-4)GlcNAc(b1-3)Gal(b1-4)Glc
# Outline: as §1
# [13] = target: Gal(a1-4)GlcNAc
# Outline: as §1
# [14] = target: Gal(a1-6)Glc
# Outline: as §1
# [15] = target: Gal(b1-2)Gal
# Outline: as §1
# [16] = target: Gal(b1-3)Gal
# Outline: as §1
# [17] = target: Gal(b1-3)Gal(b1-4)GlcNAc
# Outline: as §1
# [18] = target: Gal(b1-3)Gal(b1-4)GlcNAc(b1-2)Man(a1-3)[Gal(b1-3)Gal(b1-4)GlcNAc(b1-2)Man(a1-6)]Man(b1-4)GlcNAc(b1-4)GlcNAc
# Outline: as §1
# [19] = target: Gal(b1-3)GalNAc
# Outline: as §1
# [20] = target: Gal(b1-3)GalNAc(a1-3)[Fuc(a1-2)]Gal(b1-4)Glc
# Outline: as §1
# [21] = target: Gal(b1-3)GalNAc(a1-3)[Fuc(a1-2)]Gal(b1-4)GlcNAc
# Outline: as §1
# [22] = target: Gal(b1-3)GalNAc(b1-3)Gal(a1-4)Gal(b1-4)Glc
# Outline: as §1
# [23] = target: Gal(b1-3)GalNAc(b1-4)Gal(b1-4)Glc
# Outline: as §1
# [24] = target: Gal(b1-3)GalNAc(b1-4)[Neu5Ac(a2-3)]Gal(b1-4)Glc
# Outline: as §1
# [25] = target: Gal(b1-3)GlcNAc
# Outline: as §1
# [26] = target: Gal(b1-3)GlcNAc(b1-2)Man(a1-3)[Gal(b1-3)GlcNAc(b1-2)Man(a1-6)]Man(b1-4)GlcNAc(b1-4)GlcNAc
# Outline: as §1
# [27] = target: Gal(b1-3)GlcNAc(b1-2)Man(a1-3)[Gal(b1-3)GlcNAc(b1-2)Man(a1-6)]Man(b1-4)GlcNAc(b1-4)[Fuc(a1-6)]GlcNAc
# Outline: as §1
# [28] = target: Gal(b1-3)GlcNAc(b1-3)Gal(b1-3)GlcNAc
# Outline: as §1
# [29] = target: Gal(b1-3)GlcNAc(b1-3)Gal(b1-4)Glc
# Outline: as §1
# [30] = target: Gal(b1-3)GlcNAc(b1-3)Gal(b1-4)GlcNAc
# Outline: as §1
binder,measurement,setting,value
B1,glycan array binding signal (z-score),[1],-0.108
same,glycan array binding signal (z-score),[2],-0.103
same,glycan array binding signal (z-score),[3],-0.158
same,glycan array binding signal (z-score),[4],-0.14
same,glycan array binding signal (z-score),[5],-0.217
same,glycan array binding signal (z-score),[6],-0.183
same,glycan array binding signal (z-score),[7],-0.127
same,glycan array binding signal (z-score),[8],-0.184
same,glycan array binding signal (z-score),[9],-0.101
same,glycan array binding signal (z-score),[10],-0.109
same,glycan array binding signal (z-score),[11],0.012
same,glycan array binding signal (z-score),[12],-0.228
same,glycan array binding signal (z-score),[13],-0.066
same,glycan array binding signal (z-score),[14],-0.092
same,glycan array binding signal (z-score),[15],-0.205
same,glycan array binding signal (z-score),[16],-0.147
same,glycan array binding signal (z-score),[17],-0.163
same,glycan array binding signal (z-score),[18],-0.045
same,glycan array binding signal (z-score),[19],-0.167
same,glycan array binding signal (z-score),[20],-0.155
same,glycan array binding signal (z-score),[21],-0.163
same,glycan array binding signal (z-score),[22],-0.167
same,glycan array binding signal (z-score),[23],-0.152
same,glycan array binding signal (z-score),[24],-0.111
same,glycan array binding signal (z-score),[25],-0.159
same,glycan array binding signal (z-score),[26],-0.092
same,glycan array binding signal (z-score),[27],-0.085
same,glycan array binding signal (z-score),[28],-0.167
same,glycan array binding signal (z-score),[29],-0.166
same,glycan array binding signal (z-score),[30],-0.186
